PubChem BioAssay AID1347165 (National Center for Advancing Translational Sciences (NCATS), 2019)
About 5,700 (2.6%) of roughly 220,000 compounds were called active. The inconclusive results got no clear call from the source; some entries with a clear call stand among them for comparison. Calls follow the shape of the dose curve; as a rule, active = well fitted inhibition curve with a large enough effect; inconclusive = small, poorly fitted or top-dose-only effect; inactive = no such curve, though single readings can be large or run the other way. A potency beside an inconclusive call is a rough fit, not a confirmed value.

Molecular target: Lysine-specific demethylase 5B (Homo sapiens) (UniProt Q9UGL1)
Sequence of UniProt Q9UGL1 (Q9UGL1 whole entry, looked up): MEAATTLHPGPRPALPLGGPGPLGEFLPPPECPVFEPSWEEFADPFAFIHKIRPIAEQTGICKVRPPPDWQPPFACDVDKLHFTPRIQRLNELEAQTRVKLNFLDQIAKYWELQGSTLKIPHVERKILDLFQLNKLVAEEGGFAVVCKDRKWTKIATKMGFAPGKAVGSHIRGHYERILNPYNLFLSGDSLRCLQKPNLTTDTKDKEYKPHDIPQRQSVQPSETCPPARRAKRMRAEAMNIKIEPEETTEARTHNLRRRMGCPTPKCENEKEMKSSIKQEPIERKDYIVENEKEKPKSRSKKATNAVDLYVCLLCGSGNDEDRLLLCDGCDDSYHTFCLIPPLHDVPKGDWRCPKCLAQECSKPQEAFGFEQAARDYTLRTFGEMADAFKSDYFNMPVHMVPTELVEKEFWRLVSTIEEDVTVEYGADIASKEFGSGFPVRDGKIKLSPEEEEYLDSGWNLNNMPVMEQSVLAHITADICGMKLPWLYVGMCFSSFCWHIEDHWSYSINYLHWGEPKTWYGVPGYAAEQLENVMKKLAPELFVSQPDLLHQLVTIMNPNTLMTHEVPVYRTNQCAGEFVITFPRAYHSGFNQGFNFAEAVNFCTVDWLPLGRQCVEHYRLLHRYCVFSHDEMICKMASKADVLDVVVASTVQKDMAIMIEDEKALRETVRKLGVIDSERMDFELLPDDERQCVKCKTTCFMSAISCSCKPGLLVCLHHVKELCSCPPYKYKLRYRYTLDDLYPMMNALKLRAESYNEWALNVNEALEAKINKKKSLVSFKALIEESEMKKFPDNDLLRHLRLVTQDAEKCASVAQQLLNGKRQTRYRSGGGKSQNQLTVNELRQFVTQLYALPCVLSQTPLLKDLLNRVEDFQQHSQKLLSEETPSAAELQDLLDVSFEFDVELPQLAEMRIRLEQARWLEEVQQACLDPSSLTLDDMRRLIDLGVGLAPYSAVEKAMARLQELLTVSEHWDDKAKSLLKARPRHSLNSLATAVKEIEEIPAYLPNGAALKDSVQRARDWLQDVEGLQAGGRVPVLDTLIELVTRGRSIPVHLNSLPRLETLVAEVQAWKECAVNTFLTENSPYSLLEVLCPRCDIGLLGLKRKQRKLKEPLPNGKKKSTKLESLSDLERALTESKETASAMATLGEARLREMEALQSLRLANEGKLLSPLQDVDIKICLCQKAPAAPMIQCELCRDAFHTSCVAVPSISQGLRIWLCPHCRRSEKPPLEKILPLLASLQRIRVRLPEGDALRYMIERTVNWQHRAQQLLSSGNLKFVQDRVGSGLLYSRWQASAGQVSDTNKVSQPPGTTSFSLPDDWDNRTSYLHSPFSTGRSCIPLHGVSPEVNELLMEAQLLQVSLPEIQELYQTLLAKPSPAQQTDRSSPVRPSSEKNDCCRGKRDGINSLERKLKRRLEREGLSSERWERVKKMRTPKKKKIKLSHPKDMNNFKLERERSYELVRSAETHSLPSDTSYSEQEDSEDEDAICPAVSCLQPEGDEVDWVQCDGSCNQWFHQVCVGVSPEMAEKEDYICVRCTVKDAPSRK
Assay: Primary screen for KDM5B Histone Demethylases FDH-coupled qHTS; also: nearly all actives have a fitted effect of over 70% in size; as to activity change, negative = inhibition: 0% is about no effect
Details: FDH-coupled NADH fluorescence (FDH is formaldehyde dehydrogenase); activity change, negative = inhibition: at 57.7 µM (top of the series) unless noted
Procedure, shortened: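 Coupled FDH/NAD⁺ fluorescence readout. KDM5BΔAP 200 nM final; compound titration, 10 min RT preincubation; substrate mix 12.5 µM H3K4me3, 25 µM 2-OG, 50 µM Fe(II), 100 µM ascorbate, 0.25 mM NAD⁺, 0.25 U/mL FDH; ΔRFU over 30 min.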
Potency is read from the fitted curve at half-maximal effect; tags tell the direction and shape of the fitted curve.

SMILES	Potency	activity change, negative = inhibition
COc1ccc(C(=O)/C(C#N)=C\c2cccc(Cl)c2Cl)cc1	inconclusive: 39.8 µM [inhibitor, single point]	–
Cc1ccc(-n2c(=O)[nH]c3sc4c(c3c2=O)CCCC4)cc1	inconclusive: 15.8 µM [inhibitor, partial curve, poor fit]	–
CC(=O)N(Cc1cccnc1)c1nc2cc(C)cc(C)c2s1	inconclusive: 50.1 µM [inhibitor, single point]	–
CSc1ccc(/C=C/c2nc3ccccc3n2S(=O)(=O)c2ccc(F)c(C)c2)cc1	inconclusive: 35.5 µM [inhibitor, partial curve, poor fit]	–
COc1ccc(-c2nc(CS(=O)CC(=O)NCCCN3CCOCC3)c(C)o2)cc1OC (stereo not given)	inconclusive: 31.6 µM [inhibitor, partial curve, poor fit]	–
Cc1ccc(S(=O)(=O)n2nc(C)c(S(=O)(=O)N3CCCCC3)c2C)cc1	inconclusive: 25.1 µM [inhibitor, partial curve, poor fit]	–
O=C1ON=C(c2ccc([N+](=O)[O-])cc2)/C1=C/c1ccccc1O	inconclusive: 8.91 µM [inhibitor, full curve, poor fit]	–
COc1ccc(-c2cc3c(=O)n(CC(=O)Nc4cc(C)ccc4C)ccn3n2)cc1	–	inactive: -6.75%
Cc1ccc(Cl)cc1-n1ncc2c(NCCC3=CCCCC3)ncnc21	inconclusive: 35.5 µM [inhibitor, single point]	–
Cc1c(C)c2ccc(OC(C)C(=O)NCCc3ccc(S(N)(=O)=O)cc3)cc2oc1=O (stereo not given)	inconclusive: 25.1 µM [inhibitor, partial curve, poor fit]	–
CCN1c2cc(C(=O)Nc3ccc(F)c(C)c3)ccc2C(=O)N2CCCCCC21 (stereo not given)	inconclusive: 31.6 µM [inhibitor, partial curve, poor fit]	–
O=C(Nc1nnc(-c2ccccc2)o1)C1CCN(S(=O)(=O)c2cccc(Cl)c2Cl)CC1	–	inactive: 12.4%
CN(Cc1ccc2nsnc2c1)C(=O)c1cccc(-n2cnnc2)c1	inconclusive: 20 µM [inhibitor, partial curve]	–
COc1cccc(OCc2cc(=O)n3cc(C)sc3n2)c1	inconclusive: 15.8 µM [inhibitor, partial curve, poor fit]	–
CCCc1nnc([C@H]2CCN(Cc3ccc(C)o3)C2)o1	inconclusive: 31.6 µM [inhibitor, single point]	–
CCOc1ccc(OCC)c(-n2cnnn2)c1	–	inconclusive: -32.1% [inhibitor]
Cc1ccc(Nc2cc(C)nc3c(-c4ccccc4)cnn23)cc1	inconclusive: 1.78 µM [inhibitor, partial curve, poor fit]	–
Cc1cc2cc(-c3c(C)noc3C)nc(Nc3ccccc3)c2o1	active: 39.8 µM	–
NC(=O)C1CCN(Cc2nc(-c3cccs3)no2)CC1	–	inactive: -0.786%
O=C(CCC1CCCO1)NC1CCCCC1 (stereo not given)	–	inactive: 6.28%
Cc1ccc(NC(=O)Cn2cc(C(=O)c3ccco3)c3ccccc32)c(C)c1	inconclusive: 31.6 µM [inhibitor, partial curve, poor fit]	–
Cc1ccccc1CNC(=O)c1cc2cccc3c2n1CC(C)S3 (stereo not given)	inconclusive: 35.5 µM [inhibitor, partial curve, poor fit]	–

SMILES	Potency	activity change, negative = inhibition
O=C(Nc1ccc(F)cc1)Oc1ccc[nH]c1=O	inconclusive: 39.8 µM [inhibitor, single point]	–
S=C(c1ccc(-c2ccc(Cl)cc2Cl)o1)N1CCCC1	inconclusive: 25.1 µM [inhibitor, single point]	–
C#CCN[C@H]1C[C@@H]2c3[nH]c4ccccc4c3C[C@@H](C(=O)OC)N2[C@H](c2ccc(F)cc2)C1	active: 39.8 µM	–
O=C(C1=C(O)C(=O)N(c2nncs2)C1c1ccccc1)c1cccs1 (stereo not given)	inconclusive: 10 µM [inhibitor, partial curve, poor fit]	–
CCOc1ccc(-c2nnc(SCC(=O)c3ccc(F)cc3)n2-c2ccccc2)cc1	inconclusive: 17.8 µM [inhibitor, partial curve, poor fit]	–
Cc1ccc(CNC(=O)c2cccc(NC(=O)N3CCSc4ncccc43)c2)cc1	inconclusive: 31.6 µM [inhibitor, partial curve, poor fit]	–
CCCNC(=O)[C@@H]1Cc2cn(Cc3cc(C)on3)c3cccc(c23)[C@H](CC(C)C)N1	inconclusive: 11.2 µM [inhibitor, single point]	–
CCn1c(SCC(=O)Nc2cc(OC)ccc2OC)nc2c(-c3ccccc3)csc2c1=O	–	inactive: 13.7%
CCc1ccccc1NC(=O)c1ccc2c(c1)NC(=O)CS2	–	inactive: -7.63%
COc1cc(C)ccc1OCCSc1nc2ccc(NC(=O)c3cccs3)cc2s1	inconclusive: 35.5 µM [inhibitor, partial curve, poor fit]	–
O=C(Cc1cccc(F)c1)N1CC2CC(C1)[C@H]1CCCC(=O)N1C2 (stereo not given in full)	–	inactive: -6.2%
COC1CN(c2ccc(C)cc2)C12CCN(C(=O)COc1ccc(F)cc1)CC2 (stereo not given)	–	inactive: -10.1%
C=CCn1cc2c3c(cccc31)[C@H](CC(C)C)N[C@H](C(=O)NCCOC)C2	inconclusive: 35.5 µM [inhibitor, partial curve, poor fit]	–
O=C(CN1C(=O)C2(SCC(=O)N2c2ccccc2)c2ccccc21)NCCc1ccccc1 (stereo not given)	inconclusive: 22.4 µM [inhibitor, partial curve, poor fit]	–
CCc1ccc(NC(=O)CSc2nc3c(sc4ccccc43)c(=O)n2CCN(CC)CC)cc1	inconclusive: 17.8 µM [inhibitor, partial curve, poor fit]	–
O=C(O)CCC(=O)N1Cc2ccccc2CC2(CCN(CC3CCNC3)C2)C1 (stereo not given)	inconclusive: 70.8 µM [inhibitor, partial curve]	–
COc1cccc(C2C(C(=O)Nc3ccccc3)=C(C)Nc3ncnn32)c1OC (stereo not given)	–	inactive: 1.58%
Cc1ccc(S(=O)(=O)CC(=O)c2cccc(Cl)c2)cc1	–	inactive: -10.4%
Cc1ccccc1NC(=O)C1CC(=O)N(c2n[nH]c3cccc(F)c23)C1 (stereo not given)	inconclusive: 31.6 µM [inhibitor, single point]	–
O=C(COc1ccc(Cl)cc1)N1CCN(c2cc(-c3cccs3)[nH]n2)CC1	inconclusive: 15.8 µM [inhibitor, single point]	–
COC[C@H]1C[C@@H](NCc2ccc(C)o2)[C@H](O)[C@@H]1O	inconclusive: 39.8 µM [inhibitor, partial curve, poor fit]	–
CC(C)N1C(=O)C2(CCCCC2)C1C(=O)N1CCN(c2ccccn2)CC1 (stereo not given)	inconclusive: 35.5 µM [inhibitor, single point]	–

SMILES	Potency	activity change, negative = inhibition
CCOC(=O)c1cc(S(=O)(=O)N(C)CC(=O)N2CCN(c3ccc(Cl)cc3)CC2)cn1C	–	inactive: -14.1%
O=c1cc(-c2ccc(Cl)cc2)oc2cc(O)ccc12	–	inactive: -19.7%
COCCCNC(=O)c1sc2nc(C)c(C(=O)Nc3ccc(C)cc3C)c(-c3ccc(Br)cc3)c2c1N	–	inconclusive: -32% [inhibitor]
CN(C)C[C@@H]1CN(C2CCOCC2)C[C@H]1NC(=O)Cc1ccsc1	inconclusive: 31.6 µM [inhibitor, partial curve, poor fit]	–
Cc1nnc2ccc(NCc3ccc(F)cc3)nn12	inconclusive: 28.2 µM [inhibitor, partial curve]	–
O=C(CC1C=CCC1)NCCN1CCCCCC1 (stereo not given)	inconclusive: 3.16 µM [inhibitor, full curve, poor fit]	–
CCOC(=O)c1c(NC(=O)CN2CCC(C)CC2)sc2c1CC(C)(C)OC2	–	inactive: -2.52%
Cc1cc(C)cc(Nc2nc(N)c(C#N)c(CC#N)c2C#N)c1	inconclusive: 28.2 µM [inhibitor, single point]	–
Cc1nc2cc(N3CCC(C(=O)O)CC3)cnc2nc1C	inconclusive: 10 µM [inhibitor, partial curve]	–
O=C(c1cc(F)ccc1F)N1CCN(C(=O)c2nnn3c2COC(c2ccc(Cl)cc2)C3)CC1 (stereo not given)	–	inactive: -8.55%
CC(=O)N1CCN(Cc2snnc2C(C)C)CC(O)C1 (stereo not given)	inconclusive: 22.4 µM [inhibitor, partial curve]	–
CC(=O)OCCNC(=O)c1cc2ccccc2oc1=O	inconclusive: 28.2 µM [inhibitor, single point]	–
N#Cc1c(-c2ccccc2)cc(-c2ccccc2)c(C#N)c1N	inconclusive: 39.8 µM [inhibitor, single point]	–
COc1cc(OC)cc(C(=O)NCC2CCCN(Cc3cnn(C)c3C)C2)c1 (stereo not given)	–	inactive: -0.869%
Cc1cccc(-c2cccc3c4c([nH]c23)[C@@H]2C[C@H](N(C)C(=O)c3ccccc3C)[C@H]([C@H](C)O)CN2CC4)c1	inconclusive: 3.98 µM [inhibitor, full curve, poor fit]	–
CN(C)Cc1nnc(C2CC(NC(=O)c3ccc4nccn4c3)C2)n1C (stereo not given)	inconclusive: 28.2 µM [inhibitor, partial curve, poor fit]	–
COc1cccc(CC2(CO)CCCN(c3ccc(-c4nccn4C)nn3)C2)c1 (stereo not given)	active: 20 µM	–
COc1cccc(C(=O)N2CCC3(CC2)N=C(c2ccccc2)NO3)c1	inconclusive: 25.1 µM [inhibitor, single point]	–
CCCN(Cc1cc2ccc(C)cc2[nH]c1=O)S(C)(=O)=O	–	inactive: -21.4%
Cc1ccc(CN(C(=O)c2ccc(C(N)=O)s2)C2CC2)o1	inconclusive: 14.1 µM [inhibitor, partial curve, poor fit]	–
COc1ccc2c(Sc3ccccc3)c(C(=O)N3CCC(C)CC3)[nH]c2c1	inconclusive: 25.1 µM [inhibitor, partial curve, poor fit]	–
